# Data reported in the supplement of paper PMC4604168 (melanoma cell lines).
# This is one part of the list. Repeats are few or missing, and single values can be far off.
# Test system: A375
# Test: cell count relative to DMSO control; melanoma cells; higher = more viable cells
# Settings: library dose: standard library concentration; 72 h
# 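Also: cells treated in 1,536-well plates, then fixed and DAPI-stained, with nuclei counted from automated high-throughput microscope images.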
row,SMILES,cell count
1,"COc1cc2ncnc(Nc3ccc(Oc4ccccc4)cc3)c2cc1OC + C/C(O)=C(\C#N)C(=O)Nc1cc(Br)ccc1Br [LFM-A13] (first compound 10 µM, partner dose 10 µM)",154%
2,"CC(C)C[C@H](NC(=O)[C@H](Cc1ccccc1)NC(=O)c1cnccn1)B(O)O [Bortezomib] + C/C(O)=C(\C#N)C(=O)Nc1cc(Br)ccc1Br [LFM-A13] (first compound 0.005 µM, partner dose 10 µM)",91.2%
3,"Cc1cc([N+](=O)[O-])ccc1NS(=O)(=O)c1cc(Cl)ccc1Cl + O=C(Oc1ccc([N+](=O)[O-])cc1)N1CCC(C(O)(c2ccc3c(c2)OCO3)c2ccc3c(c2)OCO3)CC1 [JZL184] (first compound 5 µM, partner dose 5 µM)",73.6%
4,"C[C@@H]1CCN(C(=O)CC#N)C[C@@H]1N(C)c1ncnc2[nH]ccc12 + Cc1cc(SCc2sc(-c3ccc(C(F)(F)F)c(F)c3)nc2C)ccc1OCC(=O)O [GW0742] (first compound 5 µM, partner dose 10 µM)",114%
5,"O=C(O)C(=O)Nc1sc2c(c1C(=O)O)CCNC2 + O=C(Oc1ccc([N+](=O)[O-])cc1)N1CCC(C(O)(c2ccc3c(c2)OCO3)c2ccc3c(c2)OCO3)CC1 [JZL184] (first compound 8.33333 µM, partner dose 5 µM)",161%
6,"Cn1c(Nc2ccc(C(F)(F)F)cc2)nc2cc(Oc3ccnc(-c4ncc(C(F)(F)F)[nH]4)c3)ccc21 + Cc1cc(SCc2sc(-c3ccc(C(F)(F)F)c(F)c3)nc2C)ccc1OCC(=O)O [GW0742] (first compound 0.4 µM, partner dose 10 µM)",95.8%
7,"Cc1nc(Nc2ncc(C(=O)Nc3c(C)cccc3Cl)s2)cc(N2CCN(CCO)CC2)n1 [dasatanib] + Cc1cc(SCc2sc(-c3ccc(C(F)(F)F)c(F)c3)nc2C)ccc1OCC(=O)O [GW0742] (first compound 0.02 µM, partner dose 10 µM)",72.3%
8,"Oc1cc(-c2nc(-c3ccccc3)[nH]c2-c2ccncc2)ccc1Cl + O=C(Oc1ccc([N+](=O)[O-])cc1)N1CCC(C(O)(c2ccc3c(c2)OCO3)c2ccc3c(c2)OCO3)CC1 [JZL184] (first compound 1 µM, partner dose 5 µM)",94.1%
9,"O=C(O)C(=O)Nc1sc2c(c1C(=O)O)CCNC2 + C/C(O)=C(\C#N)C(=O)Nc1cc(Br)ccc1Br [LFM-A13] (first compound 8.33333 µM, partner dose 10 µM)",149%
10,"O=C(O)c1ccc2c(c1)nc(Nc1cccc(Cl)c1)c1ccncc12 + Cc1cc(SCc2sc(-c3ccc(C(F)(F)F)c(F)c3)nc2C)ccc1OCC(=O)O [GW0742] (first compound 2 µM, partner dose 10 µM)",104%
11,"COCC[n+]1c2c(n(Cc3cnccn3)c1C)C(=O)c1ccccc1C2=O + C/C(O)=C(\C#N)C(=O)Nc1cc(Br)ccc1Br [LFM-A13] (first compound 0.002 µM, partner dose 10 µM)",88.5%
12,"CN1CCN(c2ccc3nc(-c4c(N)c5c(F)cccc5[nH]c4=O)[nH]c3c2)CC1 [Dovitinib] + O=C(Oc1ccc([N+](=O)[O-])cc1)N1CCC(C(O)(c2ccc3c(c2)OCO3)c2ccc3c(c2)OCO3)CC1 [JZL184] (first compound 0.5 µM, partner dose 5 µM)",69.7%
13,"Nc1ccn([C@@H]2O[C@H](CO)[C@@H](O)C2(F)F)c(=O)n1 [gemcitabine] + C/C(O)=C(\C#N)C(=O)Nc1cc(Br)ccc1Br [LFM-A13] (first compound 0.002 µM, partner dose 10 µM)",91.4%
14,"C#Cc1cccc(Nc2ncnc3cc(OCCOC)c(OCCOC)cc23)c1 [erlotinib] + C/C(O)=C(\C#N)C(=O)Nc1cc(Br)ccc1Br [LFM-A13] (first compound 4 µM, partner dose 10 µM)",123%
15,"Cc1nc(Nc2ncc(C(=O)Nc3c(C)cccc3Cl)s2)cc(N2CCN(CCO)CC2)n1 [dasatanib] + C/C(O)=C(\C#N)C(=O)Nc1cc(Br)ccc1Br [LFM-A13] (first compound 0.02 µM, partner dose 10 µM)",76.5%
16,"CO[C@H]1C[C@@H]2CC[C@@H](C)[C@@](O)(O2)C(=O)C(=O)N2CCCC[C@H]2C(=O)O[C@H]([C@H](C)C[C@@H]2CC[C@@H](OCCO)[C@H](OC)C2)CC(=O)[C@H](C)/C=C(\C)[C@@H](O)[C@@H](OC)C(=O)[C@H](C)C[C@H](C)/C=C/C=C/C=C/1C [everolimus] + C/C(O)=C(\C#N)C(=O)Nc1cc(Br)ccc1Br [LFM-A13] (first compound 0.1 µM, partner dose 10 µM)",87.7%
17,"O=C1NC(=O)/C(=C/c2ccc(-c3ccc(F)cc3O)o2)S1 + O=C(Oc1ccc([N+](=O)[O-])cc1)N1CCC(C(O)(c2ccc3c(c2)OCO3)c2ccc3c(c2)OCO3)CC1 [JZL184] (first compound 5 µM, partner dose 5 µM)",122%

row,SMILES,cell count
1,"COc1ccc(COc2ccc(Cc3cnc(N)nc3N)cc2OC)cc1 + C/C(O)=C(\C#N)C(=O)Nc1cc(Br)ccc1Br [LFM-A13] (first compound 5 µM, partner dose 10 µM)",73.7%
2,"Oc1cc(-c2nc(-c3ccccc3)[nH]c2-c2ccncc2)ccc1Cl + C/C(O)=C(\C#N)C(=O)Nc1cc(Br)ccc1Br [LFM-A13] (first compound 1 µM, partner dose 10 µM)",95.4%
3,"Oc1nc(-c2ccc(C(F)(F)F)cc2)nc2c1CSCC2 + O=C(Oc1ccc([N+](=O)[O-])cc1)N1CCC(C(O)(c2ccc3c(c2)OCO3)c2ccc3c(c2)OCO3)CC1 [JZL184] (first compound 10 µM, partner dose 5 µM)",90.4%
4,"CN1CCN(c2ccc3nc(-c4c(N)c5c(F)cccc5[nH]c4=O)[nH]c3c2)CC1 [Dovitinib] + C/C(O)=C(\C#N)C(=O)Nc1cc(Br)ccc1Br [LFM-A13] (first compound 0.5 µM, partner dose 10 µM)",71.8%
5,"O=C(CCCCCCC(=O)Nc1ccccc1)NO [vorinostat] + Cc1cc(SCc2sc(-c3ccc(C(F)(F)F)c(F)c3)nc2C)ccc1OCC(=O)O [GW0742] (first compound 0.4 µM, partner dose 10 µM)",122%
6,"COc1ccc(COc2ccc(Cc3cnc(N)nc3N)cc2OC)cc1 + Cc1cc(SCc2sc(-c3ccc(C(F)(F)F)c(F)c3)nc2C)ccc1OCC(=O)O [GW0742] (first compound 5 µM, partner dose 10 µM)",77.5%
7,"Cc1cc(Nc2cc(N3CCN(C)CC3)nc(Sc3ccc(NC(=O)C4CC4)cc3)n2)n[nH]1 [Tozasertib] + O=C(Oc1ccc([N+](=O)[O-])cc1)N1CCC(C(O)(c2ccc3c(c2)OCO3)c2ccc3c(c2)OCO3)CC1 [JZL184] (first compound 0.03 µM, partner dose 5 µM)",106%
8,"Cn1c(Nc2ccc(C(F)(F)F)cc2)nc2cc(Oc3ccnc(-c4ncc(C(F)(F)F)[nH]4)c3)ccc21 + O=C(Oc1ccc([N+](=O)[O-])cc1)N1CCC(C(O)(c2ccc3c(c2)OCO3)c2ccc3c(c2)OCO3)CC1 [JZL184] (first compound 0.4 µM, partner dose 5 µM)",70.6%
9,"O=C(CCCCCCC(=O)Nc1ccccc1)NO [vorinostat] + C/C(O)=C(\C#N)C(=O)Nc1cc(Br)ccc1Br [LFM-A13] (first compound 0.4 µM, partner dose 10 µM)",106%
10,"Cn1c(Nc2ccc(C(F)(F)F)cc2)nc2cc(Oc3ccnc(-c4ncc(C(F)(F)F)[nH]4)c3)ccc21 + C/C(O)=C(\C#N)C(=O)Nc1cc(Br)ccc1Br [LFM-A13] (first compound 0.4 µM, partner dose 10 µM)",72%
11,"C=CCn1c(=O)c2cnc(Nc3ccc(N4CCN(C)CC4)cc3)nc2n1-c1cccc(C(C)(C)O)n1 + O=C(Oc1ccc([N+](=O)[O-])cc1)N1CCC(C(O)(c2ccc3c(c2)OCO3)c2ccc3c(c2)OCO3)CC1 [JZL184] (first compound 0.1 µM, partner dose 5 µM)",51.1%
12,"CC(C)C[C@H](NC(=O)[C@H](Cc1ccccc1)NC(=O)c1cnccn1)B(O)O [Bortezomib] + O=C(Oc1ccc([N+](=O)[O-])cc1)N1CCC(C(O)(c2ccc3c(c2)OCO3)c2ccc3c(c2)OCO3)CC1 [JZL184] (first compound 0.005 µM, partner dose 5 µM)",84.5%
13,"Clc1ccc(Nc2nnc(Cc3ccncc3)c3ccccc23)cc1 [vatalanib] + O=C(Oc1ccc([N+](=O)[O-])cc1)N1CCC(C(O)(c2ccc3c(c2)OCO3)c2ccc3c(c2)OCO3)CC1 [JZL184] (first compound 10 µM, partner dose 5 µM)",102%
14,"COc1cc2ncnc(Nc3ccc(Oc4ccccc4)cc3)c2cc1OC + O=C(Oc1ccc([N+](=O)[O-])cc1)N1CCC(C(O)(c2ccc3c(c2)OCO3)c2ccc3c(c2)OCO3)CC1 [JZL184] (first compound 10 µM, partner dose 5 µM)",96.9%
15,"C=CCn1c(=O)c2cnc(Nc3ccc(N4CCN(C)CC4)cc3)nc2n1-c1cccc(C(C)(C)O)n1 + Cc1cc(SCc2sc(-c3ccc(C(F)(F)F)c(F)c3)nc2C)ccc1OCC(=O)O [GW0742] (first compound 0.1 µM, partner dose 10 µM)",62.4%
16,"Nc1ccn([C@@H]2O[C@H](CO)[C@@H](O)C2(F)F)c(=O)n1 [gemcitabine] + O=C(Oc1ccc([N+](=O)[O-])cc1)N1CCC(C(O)(c2ccc3c(c2)OCO3)c2ccc3c(c2)OCO3)CC1 [JZL184] (first compound 0.002 µM, partner dose 5 µM)",84.7%
17,"COc1cc(N2CCC(N3CCN(C)CC3)CC2)ccc1Nc1ncc(Cl)c(Nc2ccccc2S(=O)(=O)C(C)C)n1 + O=C(Oc1ccc([N+](=O)[O-])cc1)N1CCC(C(O)(c2ccc3c(c2)OCO3)c2ccc3c(c2)OCO3)CC1 [JZL184] (first compound 0.4 µM, partner dose 5 µM)",79.5%
